We go through 48 compounds from PubChem BioAssay AID1508623 (National Center for Advancing Translational Sciences (NCATS), 2021).

The whole screen tested about 48,000 compounds, of which about 450 (0.94%) were called active. About 19% were inconclusive and are not listed. Calls come from the whole dose curve; as a rule, active = well fitted inhibition curve with a large enough effect; inconclusive = small, poorly fitted or top-dose-only effect; inactive = no such curve, though single readings can be large or run the other way. Some of the results follow.

A short description of the assay: Primary qHTS for Identification of Small Molecule Inhibitors of Huntingtin Promoter Activity. Note: nearly all actives have a fitted effect of over 50% in size. The conditions noted are these: HEK293 HTT promoter firefly luciferase reporter (activity 0% = vehicle and -100% = no light), 24 h; series mostly up to 57.5 µM; activity change, negative = inhibition: at the top concentration. Put shortly:
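Firefly luciferase readout (Dual-Glo, 10 min RT) after 24 h, 37 °C compound exposure (final up to 57.5 uM) of HEK293 reporter cells cultured 24 h beforehand; PTC124 at 50 uM final as control inhibitor; activity scaled vehicle 0%, zero RLU -100%.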
(In qHTS, concentration-response curves come from the screen itself.)
In the case of `COc1ccc(NC(=O)Cn2c(=O)n(Cc3ccco3)c(=O)c3sc4ccccc4c32)cc1Cl`, the “activity change, negative = inhibition” value is inactive: -15%. On to `Cc1ccc(N2CCn3c2nc2c3c(=O)n(Cc3cccc(Cl)c3)c(=O)n2C)cc1C`, for which the “activity change, negative = inhibition” value was inactive: -3.31%.

For the compound `O=c1c(-c2ccc(O)cc2)coc2cc(OC3O[C@H](CO)[C@H](O)[C@H](O)[C@H]3O)cc(O)c12` (stereo partly drawn), the “activity change, negative = inhibition” value was inactive: 10.7%. As for `O=C(Nc1ccc(Cl)cc1)c1ccc2c(c1)N(Cc1ccccc1)CCS2`, the “activity change, negative = inhibition” value was inactive: -22%. Then `O=C(CN1C(=O)CCSc2ccc(S(=O)(=O)N3CCCC3)cc21)Nc1ccccc1Cl`, with inactive: -8.41%; and `CCN(C(=O)CSc1nc2ccccc2nc1Cc1ccccc1OC)c1ccccc1`, with inactive: 0.775%. For the compound `CCCC12CN3CC(CCC)(CN(C1)C3c1c[nH]c3ccc(OC)cc13)C2=O` (stereo not drawn), the “activity change, negative = inhibition” value was inactive: -13.8%. On to `Cc1nc(CC(=O)Nc2ccc(C(N)=O)cc2)cs1`, for which the “activity change, negative = inhibition” value was inactive: 2.24%. With `CCSC1=NC2(CCN(C(=O)NC3CCCCC3)CC2)N=C1c1ccc(OC)cc1`, the “activity change, negative = inhibition” value is inactive: -33.8%.

`CCOc1ccccc1CNC(=O)CCc1cn(C)c2ccccc12`: the “activity change, negative = inhibition” value is inactive: -26.3%. Take `CC(=O)Nc1ccc(S(=O)(=O)NC2(C(F)(F)F)C(=O)Nc3c2c(=O)[nH]c(=O)n3-c2ccc(C)cc2)cc1` (stereo not drawn): the activity change, negative = inhibition was inactive: -10.6% [at 11.5 µM].

Consider `CCOCCCNC(=O)C(c1ccc(OC)cc1)N(Cc1cccs1)C(=O)CNC(C)=O` (stereo not drawn), for which the “activity change, negative = inhibition” value was inactive: -14.3%.

On to `CCOC(=O)c1cc2c(=O)n3ccccc3nc2n(CCCOC)c1=NC(=O)c1cc2ccccc2o1`, for which the “activity change, negative = inhibition” value was inactive: -5.3%. Turning to `COc1ccc(NC(=O)Cn2c(=O)n(Cc3ccccc3Cl)c(=O)c3cc(OC)c(OC)cc32)cc1`, the “activity change, negative = inhibition” value was inactive: -7.25%. As to `COc1cccc(-n2c(C)nc3c(cnn3-c3ccc(C)c(C)c3)c2=O)c1`, the “activity change, negative = inhibition” value is inactive: -15.2%. The result for `O=c1oc2ccc(Cl)cc2cc1-c1nc(-c2cccs2)no1` reads inactive: 1.07%.

On to `CCOc1cc2[nH]c(=O)n(CCC(=O)N3CCN(c4ccccc4)CC3)c(=O)c2cc1OCC`, for which the “activity change, negative = inhibition” value is inactive: -19%.

On to `Cc1ccc(-n2nc3c(N4CCCC(C(=O)NCc5ccccc5C)C4)nnc(C)c3c2C)cc1` (stereo not drawn), for which the “activity change, negative = inhibition” value was inactive: -4.66%. For `Cn1c(=O)n(C)c2cc(CNCc3ccccc3Cl)ccc21`, the “activity change, negative = inhibition” value is inactive: -3.98%. Then `COc1cccc(C(=O)NCc2cn3cccc(C)c3n2)c1`, with inactive: 1.78%; and `CCCn1c(=N)c(C(=O)NC(C)c2ccccc2)cc2c(=O)n3ccccc3nc21` (stereo not drawn), with inactive: -10.6%; and `O=C(c1ccc(Cl)cc1)n1nc(-c2ccccc2)nc1NCc1ccco1`, with inactive: 19.7%.

Consider `Cc1ccc2scc(N3CCCC(C)C3)c(=O)c2c1` (stereo not drawn), for which the “activity change, negative = inhibition” value was inactive: 20%.

Regarding `CCOc1ccc(NC(=O)c2nn(C)c3c2COc2ccccc2-3)cc1`, the “activity change, negative = inhibition” value is inactive: 5.21%. Then `COc1ccc2c(c1)c1c(c(=O)n(-c3cc(Cl)ccc3C)c(=O)n1Cc1ccc(F)cc1)n2C`, with inactive: -13.1%. Then `Cc1c(Cl)cccc1-n1ncc(C(=O)NC2CCCC2)c1C1CCN(C(=O)OC(C)(C)C)CC1`, with inactive: -18.6%; and `Cc1ccc(NC(=O)N2CCN3CCCCC3C2)cc1C` (stereo not drawn), with inactive: 1.62%. `C=CC(=O)Nc1cccc(Sc2nc(Nc3ccc(N4CCN(C)CC4)cc3)ncc2Cl)c1`: the “activity change, negative = inhibition” value is inactive: -16.2%. For the compound `COc1ccccc1C(=O)OCc1cc(=O)n2c(C)csc2n1`, the “activity change, negative = inhibition” value was inactive: 58.6%. The result for `CCSc1ncc(Cl)c(C(=O)Nc2cc(C)ccc2C)n1` reads inactive: -7.92%; that for `CC(=O)c1c(C)n(-c2cccc(Cl)c2)c2ccc(OC(=O)c3ccccc3)cc12`, inactive: -6.85%. As to `CCCOC(=O)c1c(-c2ccccc2)c(-c2ccccc2)nn(C)c1=O`, the “activity change, negative = inhibition” value is inactive: 27.2%. The result for `COc1ccc(-c2[nH]c(-c3ccc(C)cc3)nc2SCC(=O)NCC2CCCO2)cc1` (stereo not drawn) reads inactive: -15.7%; that for `CC1=NS(=O)(=O)c2cc(Cl)ccc2N1`, inactive: 9.13%. Consider `COc1cccc(NC(=O)CSc2nc(=O)[nH]c3c2CCCC3)c1`, for which the “activity change, negative = inhibition” value was inactive: -35.7%. As for `CCOc1ccc(-c2cc3nc(C4CCN(C(=O)OC(C)(C)C)CC4)c(C(=O)Nc4cccc(C(F)(F)F)c4)cn3n2)cc1`, the “activity change, negative = inhibition” value is inactive: -18.3%. Regarding `c1ccc2c(c1)CCc1ccccc1N2`, the “activity change, negative = inhibition” value was inactive: 9.92%. In the case of `Cc1cc2c(cc1S(=O)(=O)CCC(=O)N1CCN(c3ccccc3)CC1)OCC(=O)N2`, the “activity change, negative = inhibition” value is inactive: -19.1%.

Regarding `CCS(=O)(=O)N1CC(=O)N(c2cc(Cl)ccc2C)C(C)(C(=O)NC2CCCCCC2)C1` (stereo not drawn), the “activity change, negative = inhibition” value is inactive: 6.71%.

Take `CCCCCOC(=O)CSc1nc2sc3c(c2c(=O)n1Cc1ccccc1)CC(C)(CC)OC3` (stereo not drawn): the “activity change, negative = inhibition” value was inactive: -12.6%. Then `CN1C(=O)C[C@H](C(=O)N[C@@H](Cc2cnc[nH]2)C(=O)N2CCC[C@@H]2C(N)=O)NC1=O`, with inactive: 9.02%; and `COc1cc(Cl)c(NS(=O)(=O)c2cc3[nH]c(=O)c(=O)[nH]c3cc2C)c(OC)c1`, with inactive: 5.65%; and `COc1cccc(C(=O)NC2=NC(c3ccccc3F)CC(=O)N2)c1` (stereo not drawn), with inactive: -14.3%. For the compound `Cc1ccc(-n2c(=O)c3c4c(sc3n(CC(=O)C(C)(C)C)c2=O)CCCCC4)cc1C`, the “activity change, negative = inhibition” value is inactive: -5.58%. As for `COC1=C(OC)C(=O)C(CC=C(C)CCC=C(C)CCC=C(C)CCC=C(C)CCC=C(C)CCC=C(C)CCC=C(C)CCC=C(C)CCC=C(C)CCC=C(C)C)=C(C)C1=O`, the “activity change, negative = inhibition” value is inactive: -5.24%. As for `COC(=O)c1ccc(NC(=O)c2c(-c3ccccc3)c(-c3ccccc3)nn(C)c2=O)cc1`, the “activity change, negative = inhibition” value is inactive: 2.24%. For `CCCN(C(=O)c1cc2c(s1)-c1ccccc1OC2)c1ccc(C(C)C)cc1`, the “activity change, negative = inhibition” value is inactive: -0.889%. `Cc1cccc(OC(=O)c2snnc2C)c1C`: the “activity change, negative = inhibition” value was inactive: -15.8%.
